Sequences with one replicate were seen in a single cluster, so their values are uncertain.

Here are results for 120 sequences from the supplement of paper PMC10126150.
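Also: ATP exposure 15 min at 22 °C before imaging.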

This series has as its system ATP. The series can be described thus: switch fluorescence ratio, 500 uM ATP over buffer (Cy3 cluster intensity, sum of 5 cycles each) (fold (ratio)); higher = stronger signal-on switching upon ATP binding; sequences stand for … in TCGTCGGCAGCGTCAGATGTGTATAAGAGACAGTTTTTTTTTTTTTTTTTTTTTTTTT…TC. The settings on record: aptamer strand: ATP DNA aptamer (quencher-CACCTGGGGGAGTATTGCGGAGGAAGG + anchor), 100 nM annealed; ATP concentration: 500 uM; one replicate. In a few lines:
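Imaging in selection buffer was followed by imaging after 15 min with 500 uM ATP at 22 °C, for Cy3-labelled switching-strand clusters annealed to 100 nM quencher-labelled ATP aptamer on a modified Illumina MiSeq flow-cell. Five of these buffer/ATP cycles ran, separated by NaOH stripping and re-annealing. The fluorescence ratio per cluster is summed target-cycle over summed buffer-cycle Cy3 intensity, averaged per switch-domain sequence; clusters outside 100-1000 RFU were removed.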
With CGCACAGGGT, the switch fluorescence ratio was 1.25.
Regarding AAGTCGTTGC, the switch fluorescence ratio was determined as 0.978.
As to AAGGCTCG, the switch fluorescence ratio came to 0.991.
The same measure for CGAGCCAGGA: 1.03; for TGTGAGAATG: 1; for GTAAGATTCG: 0.963.
On to TCCGGTGCTG, for which the switch fluorescence ratio stood at 1.13.
The figure for GCAGGCAAGA is 1.04; for CCTTGGCAAA it is 3.64.
For the sequence CTATAATCTT, the switch fluorescence ratio came out at 0.998.
The same measure for AAACTTGCAA: 1.27; for TCTGTCCACG: 0.982.
The figure for ACTTCGTTGG is 0.947.
The figure for GAGAAGCCGA is 0.998; for AGTTATCTGG it is 0.974.
Regarding ACGTTTGCGC, the switch fluorescence ratio was found to be 0.995.
For AGGCACTCTT, the switch fluorescence ratio turned out to be 0.986.
The figure for TTGCCATTGC is 0.977; for CTAAAATATT it is 0.999; for GGCTACCTAG it is 1.01.
The same measure for CTAACGGCGG: 1.02; for GATACGGAGT: 1.04.
The figure for TCGATCTTTA is 1.03; for GGTGCATGTT it is 0.964.
As for TACTACTCGT, the switch fluorescence ratio was determined as 1.01.
On to TTTGTTTAGT, for which the switch fluorescence ratio worked out at 1.01.
In the case of TTCAACTCCG, the switch fluorescence ratio amounted to 1.17.
The figure for AGACCTGTGC is 1.11.
The figure for AATCGAACAT is 1.03; for TTAGGAATTG it is 1.04.
The figure for TCCTCTGGTG is 3.31; for GGTTTGAGAC it is 0.996.
TGCCGAGCCG: the switch fluorescence ratio turned out to be 1.06.
The same measure for ACTGATACAG: 1.03.
For the sequence GCAACTGCGG, the switch fluorescence ratio was found to be 0.981.
The same measure for TCTCCGGATG: 2.71.
As to ATCGCGGTAT, the switch fluorescence ratio came to 1.02.
For CAATCATCTT, the switch fluorescence ratio is 1.01.
The figure for GGAGGAATCA is 0.985; for AGACTTCCTG it is 0.949.
With CCAGCGAGGC, the switch fluorescence ratio was 2.38.
The same measure for AACGGGGCGT: 0.996.
For CGGTAAATTG, the switch fluorescence ratio came to 0.997.
The figure for ATTGGTCCGG is 0.993.
In the case of TTACCGAGTA, the switch fluorescence ratio turned out to be 1.02.
For ATGGCCTACA, the switch fluorescence ratio came out at 1.03.
The figure for GGAGATCATT is 1.
The same measure for TAGTAAGAGT: 1.02; for ATCAGCCAAA: 1.03; for CCACACTGCA: 1.27.
The same measure for TCTATTCAAA: 0.971; for CTTTGGCTCG: 1.03; for ATAGTCCGGG: 0.995.
On to TCCTGAGAAA, for which the switch fluorescence ratio came to 1.06.
The figure for GATGGTATTG is 1.02; for ATAAAAAAAA it is 1.08; for CATTATGCTG it is 0.968.
For CGCCCTGATG, the switch fluorescence ratio was 1.24.
The same measure for AGCTAGCATA: 0.991; for TAACGGTT: 1.01; for GACCATGATG: 1.17.
The same measure for ATTGAGCCGA: 1.05; for AGGTCCGTGC: 0.984; for CCGCTTAGTG: 1.4.
Regarding GGAGAATAGT, the switch fluorescence ratio was 1.03.
The same measure for GGATCCAAAG: 1.02.
The figure for TGAAGCAGAT is 1.13; for TATAGCTACT it is 1.14.
For the sequence ACGGGTGAAG, the switch fluorescence ratio was determined as 1.
Regarding TCCCAAATGT, the switch fluorescence ratio was 0.97.
On to TTTTGAGAGT, for which the switch fluorescence ratio turned out to be 1.02.
The figure for ACAGAAGTTT is 1.01.
As to ACTGTCTTGA, the switch fluorescence ratio stood at 0.934.
Regarding GATTCTGTGG, the switch fluorescence ratio amounted to 1.
As for GGGTGATGG, the switch fluorescence ratio came out at 0.983.
Consider GAATGTCGAC, for which the switch fluorescence ratio came out at 1.04.
With TCCTTAAAAC, the switch fluorescence ratio stood at 1.12.
As to TGTTTAATGG, the switch fluorescence ratio came to 1.02.
Consider GGAGTATCTT, for which the switch fluorescence ratio is 1.02.
The same measure for GCGGGTATTC: 1.02; for AACGGAGATT: 1.01; for TGGTGGGTTG: 0.985.
The same measure for CGCTAAACCT: 2.62; for AGGATTACTT: 1.06.
For the sequence AATCCGCTTC, the switch fluorescence ratio came to 2.67.
The figure for TGCCATGCGA is 1.01; for GGGCAGAACC it is 1.02; for AGATTGTTTT it is 1.02.
With TCTACCCGA, the switch fluorescence ratio was 1.04.
The figure for GAGCATCCG is 1.08.
TGACCACAGC: the switch fluorescence ratio is 1.12.
The same measure for TGGTTCCTCA: 1.05; for CCTTAGTGCT: 0.986.
Consider AGCGGGCTCA, for which the switch fluorescence ratio was 1.04.
Regarding CTCTATGTAG, the switch fluorescence ratio stood at 1.04.
The figure for GAACATAGCA is 1.07.
For the sequence TCCGGTTATG, the switch fluorescence ratio stood at 1.07.
Turning to AGTCCGCGCG, the switch fluorescence ratio came out at 1.06.
The figure for GTTGCTATAT is 1.03; for CTTCACGCTG it is 1.07; for CGGCATGCAT it is 1.02.
The same measure for CGGTGTAGGC: 1.04; for TCAGATATCC: 1.01.
The figure for CTAGCCGAGT is 1.02; for CATCTGTTCT it is 0.998; for GACGGCGGGG it is 1.05.
On to TGCAATCTTA, for which the switch fluorescence ratio stood at 1.08.
The same measure for GTTCGAGCTC: 1.05; for TTGTAGGTT: 1; for GACGTCTCTA: 0.992.
On to GGATTGCCTG, for which the switch fluorescence ratio came to 0.94.
The same measure for CCACGGGTCC: 1.08; for AAGTGGCTTC: 0.972; for GCTTGAAGCA: 1.01.
The figure for GCATGAAGCT is 1.02; for TTCGGGTTAG it is 0.995; for GCGTGTTTTG it is 1.01.
Regarding GCATCCGGGG, the switch fluorescence ratio is 0.969.
For the sequence TATTCCGGGG, the switch fluorescence ratio was 1.11.
The same measure for CACGAGCTTG: 0.98.
